# Data reported in the supplement of paper PMC8728848.
# The other results are listed elsewhere or left out.
# Experiments:
# Test in all cases: glycan array binding signal (z-score within array); higher = stronger binding
# Conditions in all cases: glycan notation: IUPAC condensed, linker removed
# [1] = biological target: GlcNAc(b1-3)Gal(b1-4)GlcNAc(b1-3)GalNAc
# How it was run: (§1)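 Arrays were curated from the Consortium for Functional Glycomics database, 3228 in total, and kept only where the protein sequence was available. Binding is expressed as a within-array Z-score. This score was averaged across arrays of the same protein sequence at different concentrations or buffers and across linkers, and negative values can be read as non-binding.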
# [2] = biological target: GlcNAc(b1-3)Gal(b1-4)GlcNAc(b1-3)[GlcNAc(b1-3)Gal(b1-4)GlcNAc(b1-3)]GalNAc
# How it was run: as §1
# [3] = biological target: GlcNAc(b1-3)Gal(b1-4)GlcNAc(b1-6)[Gal(b1-3)]GalNAc
# How it was run: as §1
# [4] = biological target: GlcNAc(b1-3)Gal(b1-4)GlcNAc(b1-6)[GlcNAc(b1-3)Gal(b1-3)]GalNAc
# How it was run: as §1
# [5] = biological target: GlcNAc(b1-3)Gal(b1-4)GlcNAc(b1-6)[GlcNAc(b1-3)]Gal(b1-4)GlcNAc
# How it was run: as §1
# GlcNAc(b1-3)GalNAc = biological target: GlcNAc(b1-3)GalNAc
# How it was run: as §1
# GlcNAc(b1-3)Man = biological target: GlcNAc(b1-3)Man
# How it was run: as §1
# [6] = biological target: GlcNAc(b1-3)[GlcNAc(b1-4)][GlcNAc(b1-6)]GlcNAc
# How it was run: as §1
# [7] = biological target: GlcNAc(b1-3)[GlcNAc(b1-6)]Gal(b1-4)GlcNAc
# How it was run: as §1
# [8] = biological target: GlcNAc(b1-3)[GlcNAc(b1-6)]GalNAc
# How it was run: as §1
# [9] = biological target: GlcNAc(b1-4)Gal(b1-4)GlcNAc
# How it was run: as §1
# GlcNAc(b1-4)GlcNAc = biological target: GlcNAc(b1-4)GlcNAc
# How it was run: as §1
# [10] = biological target: GlcNAc(b1-4)GlcNAc(b1-4)GlcNAc
# How it was run: as §1
# [11] = biological target: GlcNAc(b1-4)GlcNAc(b1-4)GlcNAc(b1-4)GlcNAc(b1-4)GlcNAc
# How it was run: as §1
# [12] = biological target: GlcNAc(b1-4)GlcNAc(b1-4)GlcNAc(b1-4)GlcNAc(b1-4)GlcNAc(b1-4)GlcNAc
# How it was run: as §1
# [13] = biological target: GlcNAc(b1-4)[GlcNAc(b1-6)]GalNAc
# How it was run: as §1
# [14] = biological target: GlcNAc(b1-6)Gal(b1-4)GlcNAc
# How it was run: as §1
# GlcNAc(b1-6)GalNAc = biological target: GlcNAc(b1-6)GalNAc
# How it was run: as §1
# [15] = biological target: GlcNAc6S(b1-3)Gal(b1-4)GlcNAc
# How it was run: as §1
# Kdn(a2-3)Gal(b1-3)GalNAc = biological target: Kdn(a2-3)Gal(b1-3)GalNAc
# How it was run: as §1
# Kdn(a2-3)Gal(b1-3)GlcNAc = biological target: Kdn(a2-3)Gal(b1-3)GlcNAc
# How it was run: as §1
# Kdn(a2-3)Gal(b1-4)Glc = biological target: Kdn(a2-3)Gal(b1-4)Glc
# How it was run: as §1
# Kdn(a2-3)Gal(b1-4)GlcNAc = biological target: Kdn(a2-3)Gal(b1-4)GlcNAc
# How it was run: as §1
# [16] = biological target: Kdn(a2-3)Gal(b1-4)[Fuc(a1-3)]GlcNAc
# How it was run: as §1
# Kdn(a2-6)Gal(b1-4)GlcNAc = biological target: Kdn(a2-6)Gal(b1-4)GlcNAc
# How it was run: as §1
# [17] = biological target: Man(a1-2)Man(a1-2)Man(a1-3)Man
# How it was run: as §1
# [18] = biological target: Man(a1-2)Man(a1-2)Man(a1-6)[Man(a1-3)]Man
# How it was run: as §1
# Man(a1-2)Man(a1-3)Man = biological target: Man(a1-2)Man(a1-3)Man
# How it was run: as §1
# [19] = biological target: Man(a1-2)Man(a1-3)[Man(a1-2)Man(a1-6)]Man
# How it was run: as §1
# [20] = biological target: Man(a1-2)Man(a1-3)[Man(a1-2)Man(a1-6)]Man(a1-6)[Man(a1-2)Man(a1-2)Man(a1-3)]Man
# How it was run: as §1
binder,measurement,setting,value
Blon2468mut (Bifidobacterium longum) (protein) MTFIKQMMPRYVASMTAGIVAAAMAATCAFAPVANADAVSPTQETIQSTGRHFMVYYRAWRDVTMKGVNTDLPDDNWISMYDIPYGVDVVNIFSYVPSGQEEQAQPFYDKLKSDYAPYLHSRGIKLVRGIDYTGVAVNGFRTFMKEQNKTESEATEADYDAYAKQVIDKYMISVGLDGLDIDMQAHPNDADVKISDNVIRALSKHIGPKSAKPDTTMFLYDTNGSYLNPFKNVAECFDYVAYQQYGSSSDRTARAAADYQPYIGNEFVPGLTFPEEGDMNNRWYDATEPYEESHFYQVASYVREHNLGGMFVYALDRDGRNYDEDLRRIVPSNLLWTKTAIAESEGMALDTAKTAANHYLDRMSLRQVIDDNAASADKARDMVGKAANLYETNKAVLGGDYGEGFSNTYDPTLEAGLLGIDISVLQQQIDKSSEIIGADTAESDAKTALRMARDAAIDGLTGKIYTADQVSAWSQALKAALDATVPVPTPDSTDQNGNRDKVTNHKVQGQPKQLSATGISTDIIVAVGVTLAIAGVALSLSRKLS,glycan array binding signal (z-score),[1],-0.082
same,glycan array binding signal (z-score),[2],-0.083
same,glycan array binding signal (z-score),[3],-0.043
same,glycan array binding signal (z-score),[4],-0.059
same,glycan array binding signal (z-score),[5],-0.08
same,glycan array binding signal (z-score),GlcNAc(b1-3)GalNAc,-0.096
same,glycan array binding signal (z-score),GlcNAc(b1-3)Man,-0.071
same,glycan array binding signal (z-score),[6],-0.054
same,glycan array binding signal (z-score),[7],-0.033
same,glycan array binding signal (z-score),[8],-0.055
same,glycan array binding signal (z-score),[9],-0.052
same,glycan array binding signal (z-score),GlcNAc(b1-4)GlcNAc,-0.054
same,glycan array binding signal (z-score),[10],-0.097
same,glycan array binding signal (z-score),[11],-0.064
same,glycan array binding signal (z-score),[12],-0.052
same,glycan array binding signal (z-score),[13],-0.043
same,glycan array binding signal (z-score),[14],-0.061
same,glycan array binding signal (z-score),GlcNAc(b1-6)GalNAc,-0.094
same,glycan array binding signal (z-score),[15],-0.073
same,glycan array binding signal (z-score),Kdn(a2-3)Gal(b1-3)GalNAc,-0.082
same,glycan array binding signal (z-score),Kdn(a2-3)Gal(b1-3)GlcNAc,-0.089
same,glycan array binding signal (z-score),Kdn(a2-3)Gal(b1-4)Glc,-0.054
same,glycan array binding signal (z-score),Kdn(a2-3)Gal(b1-4)GlcNAc,-0.074
same,glycan array binding signal (z-score),[16],-0.076
same,glycan array binding signal (z-score),Kdn(a2-6)Gal(b1-4)GlcNAc,-0.092
same,glycan array binding signal (z-score),[17],-0.046
same,glycan array binding signal (z-score),[18],-0.034
same,glycan array binding signal (z-score),Man(a1-2)Man(a1-3)Man,-0.086
same,glycan array binding signal (z-score),[19],-0.065
same,glycan array binding signal (z-score),[20],-0.095
